Reference: the supplement of paper PMC10126150
Values marked as one replicate rest on one cluster of the flow cell; about a third of the high ones do not repeat.

These sequences were tested on ATP (assay: switch fluorescence ratio, 500 uM ATP over buffer (Cy3 cluster intensity, sum of 5 cycles each) (fold (ratio)); higher = stronger signal-on switching upon ATP binding; sequences stand for … in TCGTCGGCAGCGTCAGATGTGTATAAGAGACAGTTTTTTTTTTTTTTTTTTTTTTTTT…TC). Details: aptamer strand: ATP DNA aptamer (quencher-CACCTGGGGGAGTATTGCGGAGGAAGG + anchor), 100 nM annealed; ATP concentration: 500 uM; one replicate.
Method in brief: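 Clusters carrying Cy3-labelled switching strands on a modified Illumina MiSeq flow-cell were annealed to 100 nM quencher-labelled ATP aptamer and imaged in selection buffer. They were imaged again after 15 min with 500 uM ATP at 22 °C, over five buffer/ATP cycles with NaOH stripping and re-annealing in between. For each cluster, the fluorescence ratio is the summed Cy3 intensity of the target cycles divided by that of the buffer cycles, averaged per switch-domain sequence. Clusters outside 100-1000 RFU were left out.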
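Further: ATP exposure 15 min at 22 °C before imaging.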

Sequence | switch fluorescence ratio
TAGCTGGTAT | 0.975
TAGCTTCCTT | 1.36
TAGCTTGCGA | 0.996
TAGCTTGCGG | 0.98
TAGGAACAAA | 0.981
TAGGAAGCGC | 1.07
TAGGAAGTGA | 0.991
TAGGACCAAA | 1.14
TAGGACCGAC | 1.43
TAGGAGACTG | 1.11
TAGGAGAGTC | 1.02
TAGGAGGCG | 0.979
TAGGATGCCC | 0.986
TAGGATGGAT | 0.997
TAGGCATACT | 3.11
TAGGCCTCGG | 1.01
TAGGCGACGG | 1
TAGGCGAGCA | 0.983
TAGGCGAGTC | 1.05
TAGGCGTC | 1.02
TAGGCTAGAT | 1.01
TAGGCTGAT | 0.982
TAGGCTGCAC | 1.04
TAGGCTGTTG | 1.19
TAGGCTTTGC | 0.952
TAGGGATAAG | 1

Sequence | switch fluorescence ratio
TAGGGCGCTA | 1.01
TAGGGCTCA | 1
TAGGGGACCC | 1
TAGGGGCAGA | 1.02
TAGGGGCATG | 0.999
TAGGGGTTTC | 0.984
TAGGGTACTC | 1.04
TAGGGTGAAC | 1.01
TAGGGTTGT | 0.978
TAGGTCCGAT | 0.996
TAGGTGCACC | 0.963
TAGGTGGGAG | 0.99
TAGGTGTCTG | 0.957
TAGGTGTTCA | 1.05
TAGGTTCCTC | 1.06
TAGGTTCGAT | 1.01
TAGGTTGGAG | 0.994
TAGGTTGGCC | 1.11
TAGGTTTAAG | 0.998
TAGTAAAAGC | 1.05
TAGTAAAGCC | 0.958
TAGTAAGGCC | 1
TAGTAAGGGT | 0.982
TAGTACAGAG | 1.03
TAGTACGATG | 1.03
TAGTAGCCGT | 0.981

Sequence | switch fluorescence ratio
TAGTAGCTCG | 1.03
TAGTATATC | 1.02
TAGTATATTC | 0.972
TAGTATTAGT | 0.976
TAGTATTG | 1.04
TAGTATTGTT | 0.977
TAGTATTTCA | 0.997
TAGTCCATTT | 0.972
TAGTCCCG | 1
TAGTCCTACT | 1.01
TAGTCGAAT | 0.989
TAGTCGGAAC | 1.03
TAGTCGGCTC | 1.01
TAGTCTTTCC | 1.12
TAGTGAGTGG | 0.958
TAGTGCACGT | 1.01
TAGTGCG | 1
TAGTGCTTCC | 1.93
TAGTGGACAG | 1.05
TAGTGGAGT | 0.96
TAGTGTAAAG | 0.982
TAGTGTAATG | 1.02
TAGTGTCCGG | 0.932
TAGTGTGAGG | 0.984
TAGTTATCTT | 1.04
TAGTTGACAT | 1.03

Sequence | switch fluorescence ratio
TAGTTGGGCC | 0.991
TAGTTTCCCC | 1.16
TAGTTTCCGT | 1.04
TAGTTTCTCA | 0.964
TATAAACT | 1
TATAAATCG | 0.974
TATAAGCGCG | 1.06
TATAAGCTGC | 1.04
TATAAGTGCA | 1.01
TATAATACGA | 1.1
TATAATGAGA | 1.01
TATAATTGTG | 1
TATACCAGAG | 1.04
TATACCTTCG | 2.24
TATACGGTAG | 1
TATACTTCTG | 1.04
TATAGAAAA | 0.966
TATAGAATAG | 1.04
TATAGATAG | 1.01
TATAGTCGC | 1.04
TATAGTCTAT | 1.06
TATAGTTTAG | 0.979
TATATAAAGG | 1.04
TATATATAGC | 0.984
TATATCCCTC | 0.985
TATATCTGCT | 0.978

Sequence | switch fluorescence ratio
TATATGTCCC | 1
TATATGTTTG | 1.11
TATATTATG | 0.985
TATATTGATA | 1.02
TATATTTGCT | 0.963
TATCAAGAT | 1.03
TATCAAGTTT | 1.01
TATCAATACA | 1.18
TATCAATGAG | 0.916
TATCAGGGCG | 0.991
TATCAGTGTT | 1.01
TATCATAACG | 1.02
TATCATCTAC | 1.04
TATCATTCT | 1.01
TATCCAAAAT | 1.05
TATCCAACGT | 1.03
TATCCAAG | 1.02
TATCCATCGG | 0.975
TATCCATGCT | 1.03
TATCCCCGGG | 0.985
TATCCCCTTT | 1.08
TATCCCGCGG | 1.04
TATCCCGTGC | 1.1
TATCCGTAGC | 3.05
TATCCTGACG | 1.04
TATCCTTGTA | 1.05

Sequence | switch fluorescence ratio
TATCGAAAAC | 1.03
TATCGACTAT | 0.98
TATCGATTGC | 0.953
TATCGCAGGG | 1.06
TATCGCATCT | 1.04
TATCGGAACG | 1.01
TATCGGACTT | 1.04
TATCGGGAAT | 0.973
TATCGGTTTA | 0.991
TATCGTGTGG | 1.02
TATCTATAGG | 1
TATCTATGTC | 0.96
TATCTCAGCC | 0.995
TATCTCAGGT | 0.992
TATCTCAGTC | 0.957
TATCTCGGGT | 0.986
TATCTCTCGT | 1.01
TATCTGATGT | 0.998
TATCTGGTTG | 0.937
TATCTTAGCC | 1.05
TATCTTTCA | 1.02
TATGACGTT | 0.987
TATGACTGGA | 1
TATGAGACGT | 0.982
TATGAGCGGA | 0.952
TATGAGCTTT | 1.03

Sequence | switch fluorescence ratio
TATGAGTTGG | 0.922
TATGATAACG | 0.999
TATGCCCCCG | 1.04
TATGCGGGAT | 1
TATGCGTCGT | 0.983
TATGCGTGGT | 1.03
TATGCTACAA | 1
TATGCTTGTA | 1
TATGGACGCG | 1.01
TATGGAGGTC | 0.931
TATGGGGACC | 0.996
TATGGGTCAC | 1
TATGGGTTCC | 1.04
TATGGTAGTT | 1.07
TATGGTCGTC | 0.988
TATGGTTGA | 0.963
TATGTAACGA | 0.98
TATGTATACG | 1
TATGTATCAA | 0.975
TATGTCAATC | 0.998
TATGTCCCGG | 1.05
TATGTCTCAA | 1.01
TATGTTACCG | 1.08
TATGTTCCAT | 1.01
TATGTTTCCG | 1.04
TATTAACGAA | 1.02

Sequence | switch fluorescence ratio
TATTACAG | 1.01
TATTACAGAC | 1.2
TATTACAGCT | 1.02
TATTACATTA | 1.04
TATTACTAGT | 1.02
TATTAGGACA | 1.01
TATTAGGGAA | 0.959
TATTAGGGC | 0.947
TATTAGTACG | 0.976
TATTAGTGG | 0.974
TATTATTAT | 1.05
TATTCAACAT | 1.23
TATTCACTAT | 1.07
TATTCAGTTC | 0.992
TATTCATAGC | 0.969
TATTCCAGGT | 1.17
TATTCCTACT | 1.07
TATTCCTTCT | 1.04
TATTCCTTGA | 1.01
